# According to the supplement of paper PMC8728848:
# The other results are listed elsewhere or left out.
# B1: mLPHN-1 (Mus musculus), Q80TR1 (protein)
# chain: MARLAAALWSLCVTTVLVTSATQGLSRAGLPFGLMRRELACEGYPIELRCPGSDVIMVENANYGRTDDKICDADPFQMENVQCYLPDAFKIMSQRCNNRTQCVVVAGSDAFPDPCPGTYKYLEVQYDCVPYIFVCPGTLQKVLEPTSTHESEHQSGAWCKDPLQAGDRIYVMPWIPYRTDTLTEYASWEDYVAARHTTTYRLPNRVDGTGFVVYDGAVFYNKERTRNIVKYDLRTRIKSGETVINTANYHDTSPYRWGGKTDIDLAVDENGLWVIYATEGNNGRLVVSQLNPYTLRFEGTWETGYDKRSASNAFMVCGVLYVLRSVYVDDDSEAAGNRVDYAFNTNANREEPVSLAFPNPYQFVSSVDYNPRDNQLYVWNNYFVVRYSLEFGPPDPSAGPATSPPLSTTTTARPTPLTSTASPAATTPLRRAPLTTHPVGAINQLGPDLPPATAPAPSTRRPPAPNLHVSPELFCEPREVRRVQWPATQQGMLVERPCPKGTRGIASFQCLPALGLWNPRGPDLSNCTSPWVNQVAQKIKSGENAANIASELARHTRGSIYAGDVSSSVKLMEQLLDILDAQLQALRPIERESAGKNYNKMHKRERTCKDYIKAVVETVDNLLRPEALESWKDMNATEQVHTATMLLDVLEEGAFLLADNVREPARFLAAKQNVVLEVTVLNTEGQVQELVFPQEYPSENSIQLSANTIKQNSRNGVVKVVFILYNNLGLFLSTENATVKLAGEAGTGGPGGASLVVNSQVIAASINKESSRVFLMDPVIFTVAHLEAKNHFNANCSFWNYSERSMLGYWSTQGCRLVESNKTHTTCACSHLTNFAVLMAHREIYQGRINELLLSVITWVGIVISLVCLAICISTFCFLRGLQTDRNTIHKNLCINLFLAELLFLVGIDKTQYEVACPIFAGLLHYFFLAAFSWLCLEGVHLYLLLVEVFESEYSRTKYYYLGGYCFPALVVGIAAAIDYRSYGTEKACWLRVDNYFIWSFIGPVSFVIVVNLVFLMVTLHKMIRSSSVLKPDSSRLDNIKSWALGAIALLFLLGLTWAFGLLFINKESVVMAYLFTTFNAFQGVFIFVFHCALQKKVHKEYSKCLRHSYCCIRSPPGGTHGSLKTSAMRSNTRYYTGTQSRIRRMWNDTVRKQTESSFMAGDINSTPTLNRGTMGNHLLTNPVLQPRGGTSPYNTLIAESVGFNPSSPPVFNSPGSYREPKHPLGGREACGMDTLPLNGNFNNSYSLRSGDFPPGDGGPEPPRGRNLADAAAFEKMIISELVHNNLRGASGGAKGPPPEPPVPPVPGVSEDEAGGPGSADRAEIELLYKALEEPLLLPRAQSVLYQSDLDESESCTAEDGATSRPLSSPPGRDSLYASGANLRDSPSYPDSSPEGPNEALPPPPPAPPGPPEIYYTSRPPALVARNPLQGYYQVRRPSHEGYLAAPSLEGPGPDGDGQMQLVTSL
# Assays:
# Test in all cases: glycan array binding signal (z-score within array); higher = stronger binding
# Details in all cases: glycan notation: IUPAC condensed, linker removed
# Fuc(a1-2)Gal = target: Fuc(a1-2)Gal
# Method in brief: (§1)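 Glycan array data came from 3228 arrays in the Consortium for Functional Glycomics database, and only arrays with an available protein sequence were kept. Glycan names were put into IUPAC-condensed notation, and columns mapping to the same glycan were averaged. The binding signal is a within-array Z-score, averaged across arrays of one protein sequence run at different concentrations or buffers and across linkers. A negative Z-score can be read as non-binding.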
# Fuc(a1-2)Gal(b1-3)GalNAc = target: Fuc(a1-2)Gal(b1-3)GalNAc
# Method in brief: as §1
# [1] = target: Fuc(a1-2)Gal(b1-3)GalNAc(b1-3)Gal
# Method in brief: as §1
# [2] = target: Fuc(a1-2)Gal(b1-3)GalNAc(b1-3)Gal(a1-4)Gal(b1-4)Glc
# Method in brief: as §1
# [3] = target: Fuc(a1-2)Gal(b1-3)GalNAc(b1-4)[Neu5Ac(a2-3)]Gal(b1-4)Glc
# Method in brief: as §1
# Fuc(a1-2)Gal(b1-3)GlcNAc = target: Fuc(a1-2)Gal(b1-3)GlcNAc
# Method in brief: as §1
# [4] = target: Fuc(a1-2)Gal(b1-3)GlcNAc(b1-3)Gal(b1-4)Glc
# Method in brief: as §1
# [5] = target: Fuc(a1-2)Gal(b1-3)[Fuc(a1-4)]GlcNAc
# Method in brief: as §1
# Fuc(a1-2)Gal(b1-4)Glc = target: Fuc(a1-2)Gal(b1-4)Glc
# Method in brief: as §1
# Fuc(a1-2)Gal(b1-4)Glc6S = target: Fuc(a1-2)Gal(b1-4)Glc6S
# Method in brief: as §1
# Fuc(a1-2)Gal(b1-4)GlcNAc = target: Fuc(a1-2)Gal(b1-4)GlcNAc
# Method in brief: as §1
# [6] = target: Fuc(a1-2)Gal(b1-4)GlcNAc(b1-3)Gal(b1-4)GlcNAc
# Method in brief: as §1
# [7] = target: Fuc(a1-2)Gal(b1-4)GlcNAc(b1-3)Gal(b1-4)GlcNAc(b1-3)Gal(b1-4)GlcNAc
# Method in brief: as §1
# [8] = target: Fuc(a1-2)Gal(b1-4)GlcNAc6S
# Method in brief: as §1
# [9] = target: Fuc(a1-2)Gal(b1-4)[Fuc(a1-3)]GlcNAc
# Method in brief: as §1
# [10] = target: Fuc(a1-2)Gal(b1-4)[Fuc(a1-3)]GlcNAc(b1-3)Gal(b1-4)[Fuc(a1-3)]GlcNAc
# Method in brief: as §1
# [11] = target: Fuc(a1-2)Gal(b1-4)[Fuc(a1-3)]GlcNAc(b1-3)Gal(b1-4)[Fuc(a1-3)]GlcNAc(b1-3)Gal(b1-4)[Fuc(a1-3)]GlcNAc
# Method in brief: as §1
# Fuc(a1-2)Gal6S(b1-4)Glc = target: Fuc(a1-2)Gal6S(b1-4)Glc
# Method in brief: as §1
# [12] = target: Fuc(a1-2)Gal6S(b1-4)Glc6S
# Method in brief: as §1
# [13] = target: Fuc(a1-2)Gal6S(b1-4)GlcNAc
# Method in brief: as §1
# Fuc(a1-2)[Gal(a1-3)]Gal = target: Fuc(a1-2)[Gal(a1-3)]Gal
# Method in brief: as §1
# [14] = target: Fuc(a1-2)[Gal(a1-3)]Gal(b1-3)GlcNAc
# Method in brief: as §1
# [15] = target: Fuc(a1-2)[Gal(a1-3)]Gal(b1-4)Glc
# Method in brief: as §1
# [16] = target: Fuc(a1-2)[Gal(a1-3)]Gal(b1-4)GlcNAc
# Method in brief: as §1
# [17] = target: Fuc(a1-2)[Gal(a1-3)]Gal(b1-4)[Fuc(a1-3)]GlcNAc
# Method in brief: as §1
# [18] = target: Fuc(a1-2)[Gal(a1-4)]Gal(b1-4)GlcNAc
# Method in brief: as §1
# [19] = target: Fuc(a1-2)[GalNAc(a1-3)]Gal
# Method in brief: as §1
# [20] = target: Fuc(a1-2)[GalNAc(a1-3)]Gal(b1-3)GlcNAc
# Method in brief: as §1
# [21] = target: Fuc(a1-2)[GalNAc(a1-3)]Gal(b1-4)Glc
# Method in brief: as §1
# [22] = target: Fuc(a1-2)[GalNAc(a1-3)]Gal(b1-4)GlcNAc
# Method in brief: as §1
binder,measurement,setting,value
B1,glycan array binding signal (z-score),Fuc(a1-2)Gal,-0.017
same,glycan array binding signal (z-score),Fuc(a1-2)Gal(b1-3)GalNAc,-0.304
same,glycan array binding signal (z-score),[1],0.031
same,glycan array binding signal (z-score),[2],0.016
same,glycan array binding signal (z-score),[3],-0.293
same,glycan array binding signal (z-score),Fuc(a1-2)Gal(b1-3)GlcNAc,-0.266
same,glycan array binding signal (z-score),[4],0.213
same,glycan array binding signal (z-score),[5],-0.021
same,glycan array binding signal (z-score),Fuc(a1-2)Gal(b1-4)Glc,-0.185
same,glycan array binding signal (z-score),Fuc(a1-2)Gal(b1-4)Glc6S,-0.237
same,glycan array binding signal (z-score),Fuc(a1-2)Gal(b1-4)GlcNAc,-0.129
same,glycan array binding signal (z-score),[6],-0.284
same,glycan array binding signal (z-score),[7],-0.028
same,glycan array binding signal (z-score),[8],-0.079
same,glycan array binding signal (z-score),[9],-0.195
same,glycan array binding signal (z-score),[10],-0.196
same,glycan array binding signal (z-score),[11],-0.029
same,glycan array binding signal (z-score),Fuc(a1-2)Gal6S(b1-4)Glc,-0.249
same,glycan array binding signal (z-score),[12],0.13
same,glycan array binding signal (z-score),[13],0.101
same,glycan array binding signal (z-score),Fuc(a1-2)[Gal(a1-3)]Gal,0.081
same,glycan array binding signal (z-score),[14],15.8
same,glycan array binding signal (z-score),[15],-0.219
same,glycan array binding signal (z-score),[16],-0.339
same,glycan array binding signal (z-score),[17],0.14
same,glycan array binding signal (z-score),[18],0.179
same,glycan array binding signal (z-score),[19],0.943
same,glycan array binding signal (z-score),[20],0.117
same,glycan array binding signal (z-score),[21],-0.468
same,glycan array binding signal (z-score),[22],0.014
